# Reference: PubChem BioAssay AID489043 (National Center for Advancing Translational Sciences (NCATS), 2010)
# Inconclusive results, whose numbers are uncertain, are shown with a selection of clear calls. A potency beside an inconclusive call is a rough fit, not a confirmed value. The source made the active and inactive calls. Calls follow the shape of the dose curve; as a rule, active = well fitted activation curve with a large enough effect; inconclusive = small, poorly fitted or top-dose-only effect; inactive = flat fitted curve, though single readings scatter.
# Biological target: Relaxin receptor 2 (Homo sapiens) (UniProt Q8WXD0)
# Test: qHTS Assay for Agonists of the Relaxin Receptor RXFP1: RXFP2 Hit Validation; also: nearly all actives have a fitted effect of over 65% in size
# Conditions: HEK293 RXFP2 cAMP TR-FRET, 30 min; series mostly up to 115 µM
# Procedure, shortened: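 HEK293 cells expressing RXFP2, cultured 16-24 hr, treated 30 min at 37C with compounds plus PDE4 inhibitor Ro 20174. cAMP measured by HTRF TR-FRET; EC50 from Hill fits, normalized to buffer and 29 nM porcine relaxin.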
# Potency is read from the fitted curve at half-maximal effect; tags tell the direction and shape of the fitted curve.
# Sequence of UniProt Q8WXD0 (Q8WXD0 whole entry, looked up): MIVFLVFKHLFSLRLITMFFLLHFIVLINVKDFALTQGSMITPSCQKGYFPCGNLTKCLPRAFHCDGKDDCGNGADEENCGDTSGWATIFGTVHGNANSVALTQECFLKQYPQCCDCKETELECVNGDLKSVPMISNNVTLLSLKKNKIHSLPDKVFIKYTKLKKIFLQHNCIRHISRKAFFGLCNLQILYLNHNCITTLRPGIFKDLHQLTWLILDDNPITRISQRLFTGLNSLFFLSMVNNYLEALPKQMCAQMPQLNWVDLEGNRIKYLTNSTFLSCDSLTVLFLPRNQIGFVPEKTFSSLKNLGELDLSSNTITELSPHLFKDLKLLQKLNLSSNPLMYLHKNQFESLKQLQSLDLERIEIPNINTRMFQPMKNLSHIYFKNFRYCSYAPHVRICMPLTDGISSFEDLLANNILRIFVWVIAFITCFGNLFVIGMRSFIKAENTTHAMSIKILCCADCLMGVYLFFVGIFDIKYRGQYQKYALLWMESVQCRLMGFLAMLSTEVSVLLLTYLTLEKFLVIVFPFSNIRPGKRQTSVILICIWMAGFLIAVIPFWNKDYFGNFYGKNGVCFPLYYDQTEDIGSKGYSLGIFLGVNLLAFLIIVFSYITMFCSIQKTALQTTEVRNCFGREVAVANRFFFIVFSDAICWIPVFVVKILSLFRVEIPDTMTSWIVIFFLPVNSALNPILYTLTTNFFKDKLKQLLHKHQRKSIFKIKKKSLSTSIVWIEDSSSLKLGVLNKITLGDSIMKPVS
row,SMILES,Potency
1,O=C(O)c1cc(-c2ccc(Br)s2)nc2ccccc12,active: 3.46 µM
2,CCS(=O)(=O)c1nc(S(=O)(=O)c2ccc(Cl)cc2)c(N2CCN(CCO)CC2)s1,"inconclusive: 34.6 µM [activator, partial curve]"
3,CN(C)S(=O)(=O)c1cccc(COc2ncnc3c(Cl)cc(Cl)cc23)c1,"inconclusive: 34.6 µM [activator, partial curve]"
4,CCOC(=O)/C(C#N)=C/c1c(N2CCN(CC)CC2)nc2c(C)cccn2c1=O,"inconclusive: 38.9 µM [activator, partial curve]"
5,CC(=O)Nc1ccc(NC(=O)CSc2ccc3nnc(-c4cccnc4)n3n2)cc1,"inconclusive: 13.8 µM [activator, partial curve]"
6,CNc1ccc(/C=C(\C#N)C(=O)Nc2ccccn2)cc1[N+](=O)[O-],"inconclusive: 27.5 µM [activator, partial curve]"
7,Cc1cccn2c(=O)c3cc(C(=O)NC4CCCC4)c(=N)n(CCCN4CCOCC4)c3nc12,"inconclusive: 87 µM [activator, single point]"
8,CCOC(=O)C1CCN(C(=O)Cn2c(=O)c3cccn3c3cccnc32)CC1,"inconclusive: 34.6 µM [activator, partial curve]"
9,O=C(O)c1ccc(N2C(=O)c3cccc4cccc(c34)C2=O)cc1,"inconclusive: 74.9 µM [activator, partial curve]"
10,S=c1nc[nH]c2c1[nH]c1ccccc12,active: 6.9 µM
11,COc1ccccc1CNS(=O)(=O)c1cc(CN2C(=O)c3cccnc3C2=O)ccc1OC,active: 30.9 µM
